In ChEMBL document CHEMBL5308541, “MAIP: An Open-Source Tool to Enrich High-Throughput Screening Output and Identify Novel, Druglike Molecules with Antimalarial Activity” (ACS Med Chem Lett, 2023):
About 540 (0.36%) of roughly 150,000 compounds showed an effect of 50% or more. The list shows a part of the results.

Each compound was assayed on Plasmodium falciparum (assay: Primary screen in NF54 nanoGlo assay, in single point, at 2uM, 72h; a lower Z score goes with more inhibition). Conditions: timepoint 72 hour.
Assay type: functional, Erythrocyte

Structure (SMILES) | % Inhibition | Z score
CC(C)(C)n1cc(Nc2nc3ccccc3o2)cn1 | -7% | 1.31
COc1ccc(-c2cc(C)no2)cc1S(=O)(=O)N1CCC[C@H](CN2CCc3ccccc3C2)C1 | -12% | 2.05
Cc1ccc(NCCCN[C@H]2CCN(c3ccc(F)cc3)C2)nc1 | 0% | 0.04
NC(=O)c1cc(N2CC[C@H](OCCN3CCCCC3)C2)ccn1 | 5% | -1.1
Cc1ccnc(Nc2nc(C)c(C(=O)N3CCC(C(N)=O)(N4CCCCC4)CC3)s2)c1 | 2% | -0.39
OC[C@H](Cc1c[nH]c2ccccc12)NCc1ccc(N2CCCC2)nc1 | 8% | -1.18
CCOc1ccc2nc(CNCc3ccc4[nH]c(=O)[nH]c4c3)ccc2c1 | 16% | -2.74
Cc1ccccc1C(NC(C)c1ccc(=O)[nH]n1)C1CCCC(C)C1 (centres undefined) | -1% | 0.12
Fc1ccc(-c2nn(CC3OCCO3)cc2Br)cc1 | 12% | -2.16
COc1ccc(OCCN2CCN([C@@H](C)C(=O)c3c(C)[nH]c4ccccc34)CC2)cc1 | 7% | -1.47
C#CCN(C)S(=O)(=O)c1cnc(N2CCCC2)c(C(F)(F)F)c1 | 4% | -0.77
COc1cncc(C(=O)N(C)[C@H]2CCN(C3CCN(C)CC3)C2)n1 | -7% | 1.1
c1cc(-c2ccnc(NCC3(N4CCOCC4)CCCCC3)n2)ccn1 | -7% | 1.21
CCN(C)CCNc1cc(C)nc(C)n1 | 37% | -8
C[C@H](NCc1ccccc1-c1ccc(CN(C)C)cc1)C(=O)Nc1ccc(Cl)cn1 | -5% | 0.77
O=C(C[C@H]1CCOC1)NCC1(CN2CCCC2)CC1 | 6% | -1.2
c1cnc(-c2ccnc(N[C@H]3CCCN(CCN4CCOCC4)C3)n2)cn1 | -8% | 1.63
Cc1nc2c(NC(=O)N(C)[C@@H](C)c3ccc4c(c3)OCCO4)cccn2n1 | -6% | 1.07
O=C(NCCc1ccc(F)cc1)[C@H]1CCCN(c2cc(-n3ccc4ccccc43)ncn2)C1 | -2% | 0.39
Cc1ccc2c(c1)c1ccccc1n2Cc1ccc(N(C)C)cc1 | 0% | 0.03
COc1ccccc1C(=O)CNC(=O)c1ccnc2ccccc12 | -3% | 0.49
c1ccc(-c2cc(CN3CCC(Oc4cnccn4)CC3)no2)cc1 | -10% | 1.84
CC(C)c1noc([C@@]23CCC[C@@H]2CN(CCN2CCCOCC2)C3)n1 | 4% | -0.55
O=C(NCCNc1cccnc1)c1cccc(-c2cn[nH]c2)c1 | -16% | 2.7
CC1(C)CN(c2ncnc3c2ncn3CC2(CO)COC2)CCN1CCO | -6% | 0.98
CC(C)Nc1ncc(C(=O)N[C@H]2CCCN(CC3CCCCC3)C2)cn1 | -5% | 0.94

Structure (SMILES) | % Inhibition | Z score
COc1ccccc1-c1cc(CNc2cc(C(C)C)nc3ccnn23)on1 | 2% | -0.39
CN(C(=O)OC(C)(C)C)[C@H](CNc1ncnc2c1cnn2C)Cc1ccccc1 | 4% | -0.77
COc1ccc(C2NCC(c3ccc(N(C)C)cc3)c3c2[nH]c2ccccc32)cc1 (centres undefined) | -8% | 1.3
O=C(c1cc2c(OC(F)(F)F)cccc2[nH]1)N1CC[C@H](CN2CCOCC2)C1 | -17% | 3.56
CCc1ccc(-c2c(C)n[nH]c2COC)cc1 | -7% | 1.16
O=C(c1cc(-c2ccccc2O)[nH]n1)N1CCC(Nc2ncccn2)C(O)C1 (centres undefined) | -1% | 0.11
CN(C)Cc1noc2ccc(NC(=O)Cc3c[nH]c4ccccc34)cc12 | -4% | 0.75
CCc1nc2cc(-c3ccc(O)c(OC(F)(F)F)c3)cnc2[nH]1 | -8% | 1.56
C[C@H](NCc1cccc(-c2cnn(C)c2)c1)C1CCC(F)(F)CC1 | 12% | -1.8
Cc1ccc(C)c([C@H](C)NC(=O)CN2CCC(N3CCN(CCO)CC3)CC2)c1 | 0% | 0.06
CCN1CCN(C2CCN(C(=O)c3ccc(-c4ccsc4)nc3N3CCC[C@H](CO)C3)CC2)CC1 | -18% | 3.21
Oc1cccc2ccc(CNc3cccc(Cl)c3)nc12 | -12% | 2.13
O=c1c2ccccc2[nH]c2ccc(OS(=O)(=O)c3ccc(F)c(Cl)c3)cc12 | -22% | 3.39
COc1ccc(-c2ccnc(C3CCN(c4ccnc(C#N)n4)CC3)n2)cc1 | -1% | 0.14
OC[C@H]1CCCCN1CCNCc1ccc(CN2CCCCC2)s1 | -4% | 0.76
CCNc1cc(C)nc(NCCNC(=O)Nc2cc(F)cc(F)c2)n1 | 79% | -17.07
Cc1c(-c2cnn(C)c2)nc(N)c(C#N)c1-c1c[nH]c2ccccc12 | 5% | -0.86
COc1ccc(CN(Cc2cccnc2)C(=O)NCC(C)(C)C)c(OC)c1 | -2% | 0.31
NCC[C@H]1CN(C(=O)c2cccc(-c3nc4ccccc4[nH]3)c2)CCO1 | -12% | 2.08
CC1Oc2ccccc2OC1C(=O)N(CCn1cccn1)c1nc2c(C(F)(F)F)cccc2s1 (centres undefined) | 5% | -0.74
Cc1ccc(OC(F)F)c(CNC(=O)Cc2c[nH]c3ncccc23)c1 | 1% | -0.21
CC(C)C(=O)N1CCC(Nc2nc(-c3cccnc3)nc3c2cnn3C)CC1 | -1% | 0.13
COc1ccccc1[C@@H]1CCCN1CCCN1CCN(C(C)C)CC1 | -3% | 0.57
CCN(C)c1ccc(-c2c(-c3ccccc3)ncn2CCCNC)cc1 | 9% | -1.71
CC[C@@H](c1cnn(C)c1)n1cnc(-c2ccccc2)c1-c1cnc(OC)nc1 | 3% | -0.47
O=C1COc2cc(-c3nc(COc4ccccc4)nn3CCO)ccc2N1 | -7% | 1.12
